Assay results reported in the DeepSol protein solubility set.

Assay: soluble on expression in E. coli; label from the status in PepcDB or PDB records

VQLQQSGAELVRPGTSVKLSCKASGYSFTNYWMNWLRELVMTQSPLTLSVTIGQPASISCKSSQSLLYSNGKTYLNWLLQRPGQSPKRLIYLVSKLDSGDPDRFTGSGSGTDFTLKISRVEAEDLGIYYCVQGSHFPPTFGAGTKLELKRADAAPTVSIFPPSSEQLTSGGASVVCFLNNFYPKDINVKWKIDGSERQNGVLNSWTDQDSKDSTYSMSSTLTLTKDEYERHNSYTCEATHKTSTSPIVKSFNRN
soluble on expression in E. coli: soluble

MASTIKEVFAEIAAPVENSHGKVTVVGVGQVGMACAYSILQQNLANELCLVDVVADKLKGEMMDLQHGLAFTRHCTVKADTDYSITAGSKLCVVTAGARQREGETRLSLVQRNVEIFKGIIPQLVKYSPDTCILVVSNPVDVLTYVTWKLSGLPRERVFGSGTNLDSARFRFLLSEKLNIAPSSCHGWIIGEHGDSSVAVWSGVNVAGVTLHEIKPDIGEKTDNEHWEAEIHKKVVDSAYEIIKLKGYTSWAIGLSVAKIAQGIFSNSRNVFALSTNVKGFHGINDDVYLSLPVVLGSAGLTHVVKQQLTEAEVQKLHNSAKALLEVQNGIVM
soluble on expression in E. coli: not soluble

MSNTTWSPTSWHSFKIEQHPTYKDKQELERVKKELHSYPPLVFAGEARNLQERLAQVIDNKAFLLQGGDCAESFSQFSANRIRDMFKVMMQMAIVLTFAGSIPIVKVGRIAGQFAKPRSNATEMLDNEEVLSYRGDIINGISKKEREPNPERMLKAYHQSVATLNLIRAFAQGGLADLEQVHRFNLDFVKNNDFGQKYQQIADRITQALGFMRACGVEIERTPILREVEFYTSHEALLLHYEEPLVRKDSLTNQFYDCSAHMLWIGERTRDPKGAHVEFLRGVCNPIGVKIGPNASVSEVLELCDVLNPRNIKGRLNLIVRMGSKMIKERLPKLLQGVLEEKRHILWSIDPMHGNTVKTSLGVKTRAFDSVLDEVKSFFEIHRAEGSLASGVHLEMTGENVTECIGGSQAITEEGLSCHYYTQCDPRLNATQALELAFLIADMLKKQHA
soluble on expression in E. coli: not soluble

MHHHHHHSSGRENLYFQGLMEKYQKLEKVGEGTYGVVYKAKDSQGRIVALKRIRLDAEDEGIPSTAIREISLLKELHHPNIVSLIDVIHSERCLTLVFEFMEKDLKKVLDENKTGLQDSQIKIYLYQLLRGVAHCHQHRILHRDLKPQNLLINSDGALKLADFGLARAFGIPVRSYTHEVVTLWYRAPDVLMGSKKYSTSVDIWSIGCIFAEMITGKPLFPGVTDDDQLPKIFSILGTPNPREWPQVQELPLWKQRTFQVFEKKPWSSIIPGFCQEGIDLLSNMLCFDPNKRISARDAMNHPYFKDLDPQIMI
soluble on expression in E. coli: soluble

MAHHHHHHMVRTKKSVPTHNPLSSEPANKTAPSRPSHKQVASSKASNNAATGKGARSQIPQKGMKKTTRIRRPHRYRPGVLALKEIRAYQATTQLLIPKIPFVRVVKEITQLFELPNEQLRYTPEALLALQTASEAYLVSLFEDAYLCSLHANRVTLMPKDIHLARRIRGRD
soluble on expression in E. coli: not soluble

MLSPADKTNVKAAWGKVGAHAGEYGAEAFERMFLSFPTTKTYFPHFDLSHGSAQVKGQGKKVADALTNAVAHVDDMPNALSALSDLHAHKLRVDPVNFKLLSHCLLVTLAAHLPAEFTPAVHASLDKFLASVSTVLTSKYRGGGVLSPADKTNVKAAWGKVGAHAGEYGAEAFERMFLSFPTTKTYFPHFDLSHGSAQVKGQGKKVADALTNAVAHVDDMPNALSALSDLHAHKLRVDPVNFKLLSHCLLVTLAAHLPAEFTPAVHASLDKFLASVSTVLTSKYR
soluble on expression in E. coli: soluble

MPFSNSHNALKLRFPAEDEFPDLSAHNNHMAKVLTPELYAELRAKSTPSGFTLDDVIQTGVDNPGHPYIMTVGCVAGDEESYEVFKDLFDPIIEDRHGGYKPSDEHKTDLNPDNLQGGDDLDPNYVLSSRVRTGRSIRGFCLPPHCSRGERRAIEKLAVEALSSLDGDLAGRYYALKSMTEAEQQQLIDDHFLFDKPVSPLLLASGMARDWPDARGIWHNDNKTFLVWVNEEDHLRVISMQKGGNMKEVFTRFCTGLTQIETLFKSKDYEFMWNPHLGYILTCPSNLGTGLRAGVHIKLPNLGKHEKFSEVLKRLRLQKRGTGGVDTAAVGGVFDVSNADRLGFSEVELVQMVVDGVKLLIEMEQRLEQGQAIDDLMPAQK
soluble on expression in E. coli: soluble
